Article PMC3242641 (European journal of medicinal chemistry, 2011)

Assays:
[1] = system: M184V RT; conditions: M184V vs WT RT, line with footnote e; cited from earlier work
[2] = system: M184V RT; test: biochemical; type: biochemical; conditions: M184V vs WT RT
[3] = target: M184V RT (Human immunodeficiency virus type 1 group M subtype B, UniProt P04585, M771V); test: biochemical; type: biochemical

In the case of `Nc1ccn([C@@H]2CS[C@H](COP(=O)(O)OP(=O)(O)OP(=O)(O)O)O2)c(=O)n1` [Compound 3TC-TP], the “Resistance (n-fold) = selectivity M184V/selectivity WT” value [1] is listed as 128 n-fold.
For `[N-]=[N+]=N[C@@H]1C[C@@H](n2cnc3c(N)nc(N)nc32)O[C@H]1COP(=O)(O)OP(=O)(O)OP(=O)(O)O` [Compound 20-TP], the “Resistance (n-fold) = selectivity M184V/selectivity WT” value [2] was 5.4 n-fold.
In the case of `[N-]=[N+]=N[C@@H]1C[C@@H](n2cnc3c(N)ncnc32)O[C@H]1COP(=O)(O)OP(=O)(O)OP(=O)(O)O` [L-AZA-TP], the “Resistance (n-fold) = selectivity M184V/selectivity WT” value [2] is reported as 3 n-fold.
For `[N-]=[N+]=N[C@@H]1C[C@@H](n2cnc3c(O)nc(N)nc32)O[C@H]1COP(=O)(O)OP(=O)(O)OP(=O)(O)O` [L-AZG-TP], the Kd [3] was over 60 µM.
Compound `Cc1cn([C@H]2C[C@H](N=[N+]=[N-])[C@@H](CO[P@](=O)(O)O[P@](=O)(O)OP(=O)(O)O)O2)c(=O)[nH]c1=O` [L-AZT-TP] has a Kd [3] of over 60 µM.

Read-outs that look alike come from different tables or passages of the source.
